This data set concerns the target G-actin in human serum.

The record followed here is patent publication US20090047272.

B1: hyperactive/actin-resistant version mc/arDNase (+6), substitutions E13R/T14K/H44R/N74K/T205K/A114R (protein)
chain: LKIAAFNIQTFGRKKMSNATLVSYIVQILSRYDIALVQEVRDSRLTAVGKLLDNLNQDAPDTYHYVVSEPLGRKSYKERYLFVYRPDQVSAVDSYYYDDGCEPCGNDTFNREPRIVRFFSRFTEVREFAIVPLHAAPGDAVAEIDALYDVYLDVQEKWGLEDVMLMGDFNAGCSYVRPSQWSSIRLWTSPTFQWLIPDSADTTAKPTHCAYDRIVVAGMLLRGAVVPDSALPFNFQAAYGLSDQLAQAISDHYPVEVMLK
Consider B1, for which the Average T50 (min) 50% DNA hydrolysis in human serum is 1 min and the “Time T50 (min) 50% DNA hydrolysis in human serum” value is given as 0.5; 1; 1.5.
